# Test results published in the supplement of paper PMC8728848.
# Some of the results follow.
# Tests used:
# Test in all cases: glycan array binding signal (z-score within array); higher = stronger binding
# Details in all cases: glycan notation: IUPAC condensed, linker removed
# [1] = target: GlcNAc(a1-4)Gal(b1-3)GlcNAc
# Summary of the method: (§1)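 Glycan array data came from 3228 arrays in the Consortium for Functional Glycomics database, and only arrays with an available protein sequence were kept. Glycan names were put into IUPAC-condensed notation, and columns mapping to the same glycan were averaged. The binding signal is a within-array Z-score, averaged across arrays of one protein sequence run at different concentrations or buffers and across linkers. A negative Z-score can be read as non-binding.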
# [2] = target: GlcNAc(a1-4)Gal(b1-4)GalNAc
# Summary of the method: as §1
# [3] = target: GlcNAc(a1-4)Gal(b1-4)GlcNAc
# Summary of the method: as §1
# [4] = target: GlcNAc(a1-4)Gal(b1-4)GlcNAc(b1-3)Gal(b1-4)Glc
# Summary of the method: as §1
# [5] = target: GlcNAc(a1-4)Gal(b1-4)GlcNAc(b1-3)Gal(b1-4)GlcNAc
# Summary of the method: as §1
# [6] = target: GlcNAc(a1-4)Gal(b1-4)GlcNAc(b1-3)Gal(b1-4)GlcNAc(b1-3)Gal(b1-4)GlcNAc
# Summary of the method: as §1
# [7] = target: GlcNAc(a1-4)Gal(b1-4)GlcNAc(b1-3)Gal(b1-4)[Fuc(a1-3)]GlcNAc(b1-3)Gal(b1-4)[Fuc(a1-3)]GlcNAc
# Summary of the method: as §1
# [8] = target: GlcNAc(a1-6)Gal(b1-4)GlcNAc
# Summary of the method: as §1
# [9] = target: GlcNAc(b1-2)Gal(b1-3)GalNAc
# Summary of the method: as §1
# [10] = target: GlcNAc(b1-2)Man(a1-3)[GlcNAc(b1-2)Man(a1-6)]Man(b1-4)GlcNAc(b1-4)GlcNAc
# Summary of the method: as §1
# [11] = target: GlcNAc(b1-2)Man(a1-3)[GlcNAc(b1-2)Man(a1-6)]Man(b1-4)GlcNAc(b1-4)[Fuc(a1-6)]GlcNAc
# Summary of the method: as §1
# [12] = target: GlcNAc(b1-2)Man(a1-3)[GlcNAc(b1-4)][GlcNAc(b1-2)Man(a1-6)]Man(b1-4)GlcNAc(b1-4)GlcNAc
# Summary of the method: as §1
# [13] = target: GlcNAc(b1-2)Man(a1-3)[GlcNAc(b1-4)][GlcNAc(b1-2)Man(a1-6)]Man(b1-4)GlcNAc(b1-4)[Fuc(a1-6)]GlcNAc
# Summary of the method: as §1
# [14] = target: GlcNAc(b1-2)[GlcNAc(b1-4)]Man(a1-3)[GlcNAc(b1-2)Man(a1-6)]Man(b1-4)GlcNAc(b1-4)GlcNAc
# Summary of the method: as §1
# [15] = target: GlcNAc(b1-2)[GlcNAc(b1-4)]Man(a1-3)[GlcNAc(b1-4)][GlcNAc(b1-2)Man(a1-6)]Man(b1-4)GlcNAc(b1-4)GlcNAc
# Summary of the method: as §1
# [16] = target: GlcNAc(b1-2)[GlcNAc(b1-4)]Man(a1-3)[GlcNAc(b1-4)][GlcNAc(b1-2)[GlcNAc(b1-6)]Man(a1-6)]Man(b1-4)GlcNAc(b1-4)GlcNAc
# Summary of the method: as §1
# [17] = target: GlcNAc(b1-2)[GlcNAc(b1-4)]Man(a1-3)[GlcNAc(b1-4)][GlcNAc(b1-2)[GlcNAc(b1-6)]Man(a1-6)]Man(b1-4)GlcNAc(b1-4)[Fuc(a1-6)]GlcNAc
# Summary of the method: as §1
# [18] = target: GlcNAc(b1-2)[GlcNAc(b1-6)]Man(a1-6)[GlcNAc(b1-2)Man(a1-3)]Man(b1-4)GlcNAc(b1-4)GlcNAc
# Summary of the method: as §1
# [19] = target: GlcNAc(b1-2)[GlcNAc(b1-6)]Man(a1-6)[GlcNAc(b1-2)Man(a1-3)]Man(b1-4)GlcNAc(b1-4)[Fuc(a1-6)]GlcNAc
# Summary of the method: as §1
# [20] = target: GlcNAc(b1-2)[GlcNAc(b1-6)]Man(a1-6)[GlcNAc(b1-4)][GlcNAc(b1-2)Man(a1-3)]Man(b1-4)GlcNAc(b1-4)GlcNAc
# Summary of the method: as §1
# GlcNAc(b1-3)Fuc = target: GlcNAc(b1-3)Fuc
# Summary of the method: as §1
# GlcNAc(b1-3)Gal = target: GlcNAc(b1-3)Gal
# Summary of the method: as §1
# [21] = target: GlcNAc(b1-3)Gal(b1-3)GalNAc
# Summary of the method: as §1
# GlcNAc(b1-3)Gal(b1-4)Glc = target: GlcNAc(b1-3)Gal(b1-4)Glc
# Summary of the method: as §1
# [22] = target: GlcNAc(b1-3)Gal(b1-4)GlcNAc
# Summary of the method: as §1
# [23] = target: GlcNAc(b1-3)Gal(b1-4)GlcNAc(b1-2)Man(a1-3)[GlcNAc(b1-3)Gal(b1-4)GlcNAc(b1-2)Man(a1-6)]Man(b1-4)GlcNAc(b1-4)GlcNAc
# Summary of the method: as §1
# [24] = target: GlcNAc(b1-3)Gal(b1-4)GlcNAc(b1-2)Man(a1-3)[GlcNAc(b1-3)Gal(b1-4)GlcNAc(b1-2)Man(a1-6)]Man(b1-4)GlcNAc(b1-4)[Fuc(a1-6)]GlcNAc
# Summary of the method: as §1
# [25] = target: GlcNAc(b1-3)Gal(b1-4)GlcNAc(b1-2)[GlcNAc(b1-3)Gal(b1-4)GlcNAc(b1-6)]Man(a1-6)[GlcNAc(b1-3)Gal(b1-4)GlcNAc(b1-2)Man(a1-3)]Man(b1-4)GlcNAc(b1-4)GlcNAc
# Summary of the method: as §1
# [26] = target: GlcNAc(b1-3)Gal(b1-4)GlcNAc(b1-3)Gal(b1-4)GlcNAc
# Summary of the method: as §1
# [27] = target: GlcNAc(b1-3)Gal(b1-4)GlcNAc(b1-3)Gal(b1-4)GlcNAc(b1-2)Man(a1-3)[GlcNAc(b1-3)Gal(b1-4)GlcNAc(b1-3)Gal(b1-4)GlcNAc(b1-2)Man(a1-6)]Man(b1-4)GlcNAc(b1-4)GlcNAc
# Summary of the method: as §1
# [28] = target: GlcNAc(b1-3)Gal(b1-4)GlcNAc(b1-3)Gal(b1-4)GlcNAc(b1-2)Man(a1-3)[GlcNAc(b1-3)Gal(b1-4)GlcNAc(b1-3)Gal(b1-4)GlcNAc(b1-2)Man(a1-6)]Man(b1-4)GlcNAc(b1-4)[Fuc(a1-6)]GlcNAc
# Summary of the method: as §1
# [29] = target: GlcNAc(b1-3)Gal(b1-4)GlcNAc(b1-3)Gal(b1-4)GlcNAc(b1-2)[GlcNAc(b1-3)Gal(b1-4)GlcNAc(b1-3)Gal(b1-4)GlcNAc(b1-6)]Man(a1-6)[GlcNAc(b1-3)Gal(b1-4)GlcNAc(b1-3)Gal(b1-4)GlcNAc(b1-2)Man(a1-3)]Man(b1-4)GlcNAc(b1-4)[Fuc(a1-6)]GlcNAc
# Summary of the method: as §1
# [30] = target: GlcNAc(b1-3)Gal(b1-4)GlcNAc(b1-3)Gal(b1-4)GlcNAc(b1-3)Gal(b1-4)GlcNAc(b1-2)Man(a1-3)[GlcNAc(b1-3)Gal(b1-4)GlcNAc(b1-3)Gal(b1-4)GlcNAc(b1-3)Gal(b1-4)GlcNAc(b1-2)Man(a1-6)]Man(b1-4)GlcNAc(b1-4)GlcNAc
# Summary of the method: as §1
# [31] = target: GlcNAc(b1-3)Gal(b1-4)GlcNAc(b1-3)Gal(b1-4)GlcNAc(b1-3)Gal(b1-4)GlcNAc(b1-2)Man(a1-3)[GlcNAc(b1-3)Gal(b1-4)GlcNAc(b1-3)Gal(b1-4)GlcNAc(b1-3)Gal(b1-4)GlcNAc(b1-2)Man(a1-6)]Man(b1-4)GlcNAc(b1-4)[Fuc(a1-6)]GlcNAc
# Summary of the method: as §1
# [32] = target: GlcNAc(b1-3)Gal(b1-4)GlcNAc(b1-3)Gal(b1-4)GlcNAc(b1-3)Gal(b1-4)GlcNAc(b1-2)[GlcNAc(b1-3)Gal(b1-4)GlcNAc(b1-3)Gal(b1-4)GlcNAc(b1-3)Gal(b1-4)GlcNAc(b1-6)]Man(a1-6)[GlcNAc(b1-3)Gal(b1-4)GlcNAc(b1-3)Gal(b1-4)GlcNAc(b1-3)Gal(b1-4)GlcNAc(b1-2)Man(a1-3)]Man(b1-4)GlcNAc(b1-4)[Fuc(a1-6)]GlcNAc
# Summary of the method: as §1
# [33] = target: GlcNAc(b1-3)Gal(b1-4)GlcNAc(b1-3)Gal(b1-4)GlcNAc(b1-3)Gal(b1-4)GlcNAc(b1-3)Gal(b1-4)GlcNAc(b1-2)Man(a1-3)[GlcNAc(b1-3)Gal(b1-4)GlcNAc(b1-3)Gal(b1-4)GlcNAc(b1-3)Gal(b1-4)GlcNAc(b1-3)Gal(b1-4)GlcNAc(b1-2)Man(a1-6)]Man(b1-4)GlcNAc(b1-4)GlcNAc
# Summary of the method: as §1
# [34] = target: GlcNAc(b1-3)Gal(b1-4)GlcNAc(b1-3)Gal(b1-4)GlcNAc(b1-3)Gal(b1-4)GlcNAc(b1-3)Gal(b1-4)GlcNAc(b1-2)Man(a1-3)[GlcNAc(b1-3)Gal(b1-4)GlcNAc(b1-3)Gal(b1-4)GlcNAc(b1-3)Gal(b1-4)GlcNAc(b1-3)Gal(b1-4)GlcNAc(b1-2)Man(a1-6)]Man(b1-4)GlcNAc(b1-4)[Fuc(a1-6)]GlcNAc
# Summary of the method: as §1
binder,measurement,setting,value
DBA (Dolichos biflorus) (protein) ANIQSFSFKNFNSPSFILQGDATVSSGKLQLTKVKENGFPLRFPSGRAFYSSPIQIYDKFTGAVASWATSFTVKISAPSKASFADGIAFALVPVGSEPRRNGGYLGVFDSDVYNNSAQTVAVEFDTLSNSGWDPSMKHIGIDVNSIKSIATVSWDLANGENAEILITYNAATSLLVVSLVHPSRRTSYILSERVDITNELPEYVGVGFSATTGLSEGYIETHDVLSWSFASRLPDDSTAEPLDLARYLVRNVL,glycan array binding signal (z-score),[1],-0.125
same,glycan array binding signal (z-score),[2],-0.085
same,glycan array binding signal (z-score),[3],-0.152
same,glycan array binding signal (z-score),[4],-0.103
same,glycan array binding signal (z-score),[5],-0.137
same,glycan array binding signal (z-score),[6],-0.14
same,glycan array binding signal (z-score),[7],-0.007
same,glycan array binding signal (z-score),[8],-0.13
same,glycan array binding signal (z-score),[9],-0.116
same,glycan array binding signal (z-score),[10],-0.127
same,glycan array binding signal (z-score),[11],-0.074
same,glycan array binding signal (z-score),[12],-0.121
same,glycan array binding signal (z-score),[13],-0.118
same,glycan array binding signal (z-score),[14],-0.097
same,glycan array binding signal (z-score),[15],-0.133
same,glycan array binding signal (z-score),[16],-0.101
same,glycan array binding signal (z-score),[17],-0.176
same,glycan array binding signal (z-score),[18],-0.109
same,glycan array binding signal (z-score),[19],-0.067
same,glycan array binding signal (z-score),[20],-0.194
same,glycan array binding signal (z-score),GlcNAc(b1-3)Fuc,-0.045
same,glycan array binding signal (z-score),GlcNAc(b1-3)Gal,-0.139
same,glycan array binding signal (z-score),[21],-0.112
same,glycan array binding signal (z-score),GlcNAc(b1-3)Gal(b1-4)Glc,-0.158
same,glycan array binding signal (z-score),[22],-0.135
same,glycan array binding signal (z-score),[23],-0.038
same,glycan array binding signal (z-score),[24],0.045
same,glycan array binding signal (z-score),[25],-0.079
same,glycan array binding signal (z-score),[26],-0.128
same,glycan array binding signal (z-score),[27],0.117
same,glycan array binding signal (z-score),[28],0.043
same,glycan array binding signal (z-score),[29],-0.147
same,glycan array binding signal (z-score),[30],-0.069
same,glycan array binding signal (z-score),[31],0.011
same,glycan array binding signal (z-score),[32],-0.094
same,glycan array binding signal (z-score),[33],0.01
same,glycan array binding signal (z-score),[34],0.003
